Article PMC6919601, “Identification of Plasmodium dipeptidyl aminopeptidase allosteric inhibitors by high throughput screening” (PLoS ONE, 2019)
The whole screen tested about 110,000 compounds, of which about 230 (0.21%) showed an effect of 50% or more. The list shows a part of the results.

Target: DPAP1 (Plasmodium falciparum, UniProt Q8IIJ9)
Assay: primary screen, percent inhibition; read by cleavage of a fluorogenic dipeptide substrate; higher = more effect of the substance
Parameters: species or system P. falciparum D10 trophozoite lysates; single well
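Further: 30 min substrate incubation versus DMSO and 10 µM JCP410 controls.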

Chain of DPAP1 (Q8IIJ9 whole entry, looked up): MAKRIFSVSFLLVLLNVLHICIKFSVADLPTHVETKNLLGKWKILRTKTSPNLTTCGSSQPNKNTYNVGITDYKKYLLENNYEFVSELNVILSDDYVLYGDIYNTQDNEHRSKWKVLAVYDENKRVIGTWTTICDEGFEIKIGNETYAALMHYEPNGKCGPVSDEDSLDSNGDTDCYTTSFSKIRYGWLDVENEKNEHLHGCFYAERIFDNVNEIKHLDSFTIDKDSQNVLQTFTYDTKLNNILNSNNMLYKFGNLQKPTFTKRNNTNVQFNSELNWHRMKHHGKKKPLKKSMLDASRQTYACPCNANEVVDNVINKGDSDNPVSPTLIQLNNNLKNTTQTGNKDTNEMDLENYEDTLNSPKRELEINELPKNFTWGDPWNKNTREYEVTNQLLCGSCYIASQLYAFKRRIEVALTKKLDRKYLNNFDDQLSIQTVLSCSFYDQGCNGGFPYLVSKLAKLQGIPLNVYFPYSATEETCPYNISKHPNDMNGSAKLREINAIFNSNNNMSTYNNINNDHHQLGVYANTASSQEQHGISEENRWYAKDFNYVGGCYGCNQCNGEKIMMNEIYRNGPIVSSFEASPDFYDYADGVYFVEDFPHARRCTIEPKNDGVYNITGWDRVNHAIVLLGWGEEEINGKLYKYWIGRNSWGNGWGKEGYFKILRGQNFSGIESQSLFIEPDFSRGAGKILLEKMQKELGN

Compound	% Inhibition @ 10 uM
CS(=O)(=O)N(CC(=O)Nc1cccnc1)c1cccc(F)c1	-2.37%
CCOc1cc(C(=O)Nc2ccc(Br)cn2)cc(OCC)c1OCC	11.8%
COc1cccc(CCNC(=O)c2ccco2)c1	0.00178%
CC(C)CNS(=O)(=O)c1ccc(CCC(=O)Nc2ccc(F)cc2)cc1	4.22%
COc1cccc(-c2nc(-c3ccc(C(F)(F)F)cc3)no2)c1	2.62%
O=C(Cn1nc(-c2ccccc2)ccc1=O)N1CCOCC1	3.79%
CCOC(=O)C1=C2SCC(=O)N2C(N)=C(C(=O)OC(C)C)C1	-1.6%
COc1ccc(CCNC(=O)Cn2ncn3cccc3c2=O)cc1OC	-3.93%
COc1ccc(S(=O)(=O)c2c(O)nc3cc(C(=O)O)ccc3c2O)cc1	-3.13%
O=C(c1cccc(F)c1)N1CCN(Cc2ccc(Br)cc2)CC1	-3.76%
COC(=O)C1C(c2ccc(OC)c(OC)c2)NC(c2ccc(OC)c(OC)c2)C(C(=O)OC)S1(=O)=O (stereo not drawn)	0.035%
CCCOc1cccc(-c2nc3c(=O)n(C)c(=O)n(C)c3[nH]2)c1	-1.75%
CC1CCCCC1NC(=O)C1CCN(S(C)(=O)=O)CC1 (stereo not drawn)	-6.88%
CCOc1ccccc1OCc1nn2c(COc3ccccc3)nnc2s1	7.97%
CC1CCCC(C)N1C(=O)Cc1ccccc1 (stereo not drawn)	0.605%
CCCN(CCC)S(=O)(=O)c1c(C(=O)OCC)c(C)n(C)c1C	2.6%
COc1ccc(-c2csc(/C(C#N)=C/Nc3ccc(C(N)=O)cc3)n2)cc1	3.72%
COc1cccc(C2C(C#N)=C(N)OC3=C2C(=O)CCC3)c1OC (stereo not drawn)	-5.5%
CC1CCC(N2CCCC(CO)C2)CC1 (stereo not drawn)	-6.85%
COc1ccc(/C=C(\S)C(=O)O)cc1	17.9%
CCOC(=O)c1cnc2c(OC)cc3c4ccccc4oc3c2c1O	0.484%
O=C1CCC(C(=O)O)C(Cc2ccccc2)C1 (stereo not drawn)	1.26%
O=c1c(/C=C\c2nc3ccccc3c(=O)n2-c2ccccc2)coc2ccccc12	-13.3%
COc1ccc(C(=O)CC(c2ccccc2)C2C(=O)CCCC2=O)cc1 (stereo not drawn)	15.4%
CC(=O)OC(C)(C#CCN1CCOCC1)C(C)C (stereo not drawn)	6.8%
O=C1N=C(N2CCOCC2)S/C1=C/c1ccc(-c2ccc(C(=O)O)c(Cl)c2)o1	18.3%

Compound	% Inhibition @ 10 uM
Cc1ccc(C)c(NC(=O)c2csc3c2CCCC3)c1	2.4%
O=c1c2c([nH]c(=S)n1Cc1ccccc1)-c1ccccc1CC21CCCC1	-4.32%
O=C(O)c1ccccc1C(=O)OCCCCOC(=O)c1ccccc1C(=O)O	-5.2%
CCOc1ccccc1N(CC(=O)N1CCCC1)S(=O)(=O)c1ccc(C)cc1	-6.75%
FC(F)(F)c1cc(-c2cccs2)nc2c(-c3ccccc3)cnn12	3.16%
O=C(c1cnn2c1NC(c1ccc(Br)cc1)CC2C(F)(F)F)N1CCCCCC1 (stereo not drawn)	0.512%
CCN(CCN(C)C)Cc1cccc(F)c1	2.7%
O=C(NCc1ccccc1)c1cccc(C(=O)NCc2ccccc2)n1	-0.318%
CCc1ccc(OCC(=O)Nc2ccc(S(N)(=O)=O)cc2)c(Br)c1	-6.17%
CCN1CCN(C(=O)Cn2c(=O)c3cccn3c3cccnc32)CC1	6.91%
ONc1nc(O)cc(-c2ccccc2)n1	1.91%
CSc1ncc(C(=O)NC2CCN(Cc3ccccc3)CC2)c(C(F)(F)F)n1	4.32%
COc1cccc(N(CC(=O)NC(C)c2ccccc2)S(=O)(=O)c2ccc(C)cc2)c1 (stereo not drawn)	-4.59%
COc1ccccc1C(=O)NCc1nc(-c2ccc(Cl)cc2)no1	2.14%
Cc1ccc(C(=O)Nc2ccc(S(=O)(=O)N3CCCC3)cc2)cc1Br	1.94%
COc1cc2c(cc1OC)C(Nc1ccc(F)c(F)c1)=NC(C)(C)C2	-6.37%
NCC1COc2ccccc2O1 (stereo not drawn)	-1.96%
Cc1cc(C)c2nc(N3CCCC(C(=O)N4CCC(C(N)=O)CC4)C3)sc2c1 (stereo not drawn)	7.91%
CC1CCCN(CC(O)COc2ccc(Cl)cc2)C1 (stereo not drawn)	5.31%
Cc1nn2c(-c3ccccc3)c(S(=O)(=O)c3ccccc3)cnc2c1Br	1.64%
CCc1ccccc1NC1=C(Cl)C(=O)N(c2ccc(OC)cc2)C1=O	1.36%
CC(C(=O)NCCCc1ccccc1)n1cccc1C(=O)c1ccccc1 (stereo not drawn)	-5.89%
Cc1ccc(C(=O)CC(C(=O)O)c2cn(CCC#N)c3ccccc23)cc1 (stereo not drawn)	3.63%
NS(=O)(=O)c1ccc(NC(=O)C(c2ccccc2)c2ccccc2)cc1	0.0974%
CC(=O)Nc1nc2nc(C)cc(C)n2n1	-9.18%
CNCC(=O)c1c[nH]c2ccccc12	-3.13%

Compound	% Inhibition @ 10 uM
CCOc1ccc(C(=O)NCCc2ccc(OC)c(OC)c2)cc1	-4.72%
CC(=O)CC(=O)Nc1ccccc1F	-1.92%
CC1=C(C(=O)Nc2ccc(F)cc2F)C(c2cccc(Br)c2)C2=C(O)CCCC2=N1 (stereo not drawn)	-7.3%
CCOC(=O)C1=C(C)OC2(O)c3ccccc3C(=O)C12O (stereo not drawn)	1.66%
COc1cc(OC)c(-n2nnc(-c3nsc(NC(=O)c4ccccc4)n3)c2C)cc1Cl	0.351%
CCc1ccccc1NC(=O)CN(c1ccc(Cl)cc1)S(C)(=O)=O	-2.44%
COc1ccc(/C=C/C(=O)NC(=S)Nc2ccc(S(N)(=O)=O)cc2)cc1OC	3.7%
CCC(=O)Nc1ccc(S(=O)(=O)Nc2cc(C)on2)cc1	0.983%
CCCCN(C)C(=O)Cn1cnc2onc(-c3ccc(F)cc3)c2c1=O	4.23%
CC(C)C[C@H](NC(c1ccc(Br)cc1)c1nccs1)C(=O)NC1(C#N)CC1 (stereo partly drawn)	4.45%
CC(=O)c1ccc(NC(=O)COc2ccc(Br)cc2C)cc1	-4.02%
CCCCNC(=O)c1ccc2c(c1)ncn2C1CCCC1	2.05%
O=C(NC1CCCCC1)c1cccc(S(=O)(=O)N2CC(c3ccccc3)CC2=O)c1 (stereo not drawn)	-0.834%
c1ccc2c(NCc3ccncc3)cccc2c1	3.96%
CCCOc1ccc(C(=O)N2CCN(Cc3ccc4c(c3)OCO4)CC2)cc1	0.231%
COCCN1Cc2cccc(C(=O)Nc3cccnc3)c2C1=O	-6.62%
CC(C)CC(NC(=O)/C=C/c1c[nH]cn1)C(=O)NCC#N (stereo not drawn)	0.744%
CN(C)c1ccc(C(=O)C(O)c2ccc(C(C)(C)C)cc2)cc1 (stereo not drawn)	-5.44%
C/C(=C(\NC(=O)c1ccccc1)C(=O)O)c1ccccc1	-0.48%
Cc1nc2ccccc2c2oc(C(=O)NCCCN3CCC(Cc4ccccc4)CC3)cc12	2.85%
O=C(Cn1nc(-c2ccc(Cl)cc2)ccc1=O)NCCCN1CCN(Cc2ccccc2)CC1	3.24%
CN1CCN(C(=O)c2ccc(CS(=O)Cc3ccc(Cl)cc3)o2)CC1 (stereo not drawn)	-5.43%
CN(Cc1ccccc1)C(=O)C1CCCN(Cc2ccc(Cl)cc2)C1 (stereo not drawn)	-9.48%
Cc1cc(-c2ccco2)c(C#N)c(N)n1	1.38%
CN(Cc1ccco1)S(=O)(=O)c1ccc(-c2ccc(O)nn2)s1	-0.171%
NC(c1ccccc1)c1c(O)ccc2ccccc12 (stereo not drawn)	-3.92%

Compound	% Inhibition @ 10 uM
O=C1C2CC=CCC2C(=O)N1c1cccc(O)c1 (stereo not drawn)	0.993%
CCCCNc1nc(Oc2ccc(OCCC)nn2)nc(N2CCOCC2)n1	1.46%
Cc1n[nH]c(C)c1S(=O)(=O)N1CCCC(C(=O)NCc2ccc(F)cc2)C1 (stereo not drawn)	-1.03%
CC(C)(Oc1ccc(Cl)cc1)C(=O)N1CCN(Cc2ccc3c(c2)OCO3)CC1	5.44%
Cn1cnnc1Sc1nc2c(c(=O)n(C)c(=O)n2C)n1Cc1ccc(F)cc1	3.25%
Cc1cccc(-n2c(N)cc(=O)nc2SCC(=O)Nc2cccc(C(F)(F)F)c2)c1	3.56%
CCOc1ccc(NC(=O)C2=C(C)NC(=O)NC2c2ccc(O)c(OC)c2)cc1 (stereo not drawn)	-2.05%
CN(C)S(=O)(=O)c1ccc2c(c1)nc1n2CCC1	-2.72%
CC(C)c1ccc(-c2c(N3CCOCC3)c(=O)c2=O)cc1	-3.5%
Cc1ccc(CNC(=O)CSc2nc3ccccc3nc2N2CC(C)OC(C)C2)cc1 (stereo not drawn)	1.72%
Cc1ccc(NC(=O)CCNC(=O)Cn2ccc3ccccc3c2=O)nc1	-0.631%
CN(C)CCCNC(=O)c1nc(-c2ccc3c(c2)OCO3)no1	4.31%
CC(=O)N(C)c1ccc(NC(=O)COc2ccc3ccccc3c2Br)cc1	0.746%
CC(NCc1ccccc1)=C1C(=O)N(C)C(=O)N(C)C1=O	-2.07%
CCOc1ccc2c(c1)C(C)=CC(C)(C)N2C(=O)CN1C(=O)c2ccccc2C1=O	5.14%
CC(C)CNC(=O)COCc1cc(-c2cccs2)on1	-6.13%
COc1ccc2ncc(S(=O)(=O)c3ccccc3)c(N3CCOCC3)c2c1	-4.86%
Cc1sc2nc(SCC(=O)N3CCCC3)n(-c3ccc(F)cc3)c(=O)c2c1C	5.18%
O=C1C2C3C=CC(C3)C2C(=O)N1c1ccccc1[N+](=O)[O-] (stereo not drawn)	-6.09%
CCCc1nnc(N2C(=O)c3oc4ccc(F)cc4c(=O)c3C2c2ccc(OCC)c(OC)c2)s1 (stereo not drawn)	0.0539%
COc1ccc(OC)c(/C=C2\N=C(c3ccccc3OC)OC2=O)c1	5.63%
Oc1cc(NCc2ccccc2)c(-c2ccccc2)nn1	1.88%
COc1ccc(C2SCC(=O)N2CCc2ccc(OC)c(OC)c2)c(OC)c1 (stereo not drawn)	2.94%
O=C(/C=C/c1ccccc1Cl)Nc1cccc(O)c1	-2.12%
